Measured values: patent US11178870B2 (priority 2017, dated 2021)

Experiments:
Magnaporthe grisea = type: in vivo; conditions: for Test A control value (blast on rice): class of control value, Table 7
Phytophthora infestans = type: in vivo; conditions: for Test F control value (late blight on tomato): class of control value, Table 7
[1] = test system: Colletotrichum orbiculare; conditions: for Test H control value (anthracnose on cucumber): 250 ppm spray, 2.5 ml/pot, investigated 6 to 10 days after inoculation

| SMILES | control value, Test A (blast on rice) (Magnaporthe grisea; Table 7, Test A) | control value, Test F (late blight on tomato) (Phytophthora infestans; Table 7, Test F) | control value, Test H (anthracnose on cucumber) ([1]; 250 ppm sprayed (2.5 ml/pot) before inoculation, assessed 6 to 10 days after inoculation) | Test A control value (blast on rice) (Magnaporthe grisea) | Test F control value (late blight on tomato) (Phytophthora infestans) | Test H control value (anthracnose on cucumber) [1] |
| --- | --- | --- | --- | --- | --- | --- |
| O=c1c(Br)cc(-c2ccsc2Br)c(-c2c(F)cccc2F)n1CC(F)F [Compound 346] | H (H shows the control value more than 50%) | L (L shows the control value of 50% or less) | H (H shows the control value more than 50%) |  |  |  |
| Cc1cc(Br)sc1-c1ccc(=O)n(CC(F)F)c1-c1c(F)cccc1F [Compound 443] |  |  |  | H (H shows the control value more than 50%) | L (L shows the control value of 50% or less) | H (H shows the control value more than 50%) |
| CCn1c(-c2ccc(N3CCCCC3)cc2F)c(-n2ncc(C)c2Cl)cc(Br)c1=O [Compound 469] |  |  |  | H (H shows the control value more than 50%) | L (L shows the control value of 50% or less) | H (H shows the control value more than 50%) |
| Cc1cnn(-c2ccc(=O)n(C)c2-c2ccccc2F)c1 [Compound 487] |  |  |  | L (L shows the control value of 50% or less) | L (L shows the control value of 50% or less) | L (L shows the control value of 50% or less) |
| CCn1c(-c2ccccc2C#N)c(-n2ncc(C)c2Cl)cc(Br)c1=O [Compound 472] |  |  |  | H (H shows the control value more than 50%) | L (L shows the control value of 50% or less) | H (H shows the control value more than 50%) |
| CCn1c(-c2c(F)cccc2F)c(-c2ccsc2C)cc(Br)c1=O [Compound 444] |  |  |  | H (H shows the control value more than 50%) | L (L shows the control value of 50% or less) | L (L shows the control value of 50% or less) |
